In patent publication US11299538B2, “Anti-IGF antibodies” (Boehringer Ingelheim International GmbH, priority 2008, dated 2022):

How the values were obtained:
Human IGF-2 [1] = molecular target: T1, Human IGF-2 (Homo sapiens, UniProt P01344); assay: surface plasmon resonance (Biacore), antibody capture method; type: binding
T1 construct: insulin-like growth factor-2 (IGF-2; a 67 amino-acid polypeptide)
Protocol: (§1) The sensor chip is coated with approximately 1000 RU of the reference antibody in flow cell 1 and approximately 1000 RU of a rabbit-anti-human Fc-gamma-specific antibody in flow cell 2 using the coupling reagents from an amine coupling kit. A target of 1000 RU is set in the surface preparation wizard of the Biacore 3000 software at a flow rate of 5 μl/min Running buffer used is HBS-EP. […] The IGF antigens are diluted to 500, 250, 125, 62.5 and 31.3 nM in running buffer (HCB) and the different antigen dilutions are run singly over Fc1 and Fc2 with random order. Blank runs using running buffer only are run in-between. A blank run curve is subtracted from each binding curve before affinity analysis. Data evaluation is performed using the BIAevaluation software (version 4.1, Biacore, Freiburg, Germany) The dissociation and association phases of the kinetics are fitted separately. For the separate fit of the kdiss values a time-frame of the initial 200-300 seconds in the dissociation phase is used (range of steady decrease of signal). For the separate fit of the kass values, initial time frames of approx 100 seconds are used (range of steady increase of signal) and for calculation the individual kdiss values are used with the 1:1 Langmuir association model. The average values with the standard deviations of the kinetic data together with the corresponding dissociation (KD) and association (KA) constants are calculated.
(§2) Affinity constants for binding of the antibodies to human, mouse, and rat IGF-1 and IGF-2 is also determined by surface plasmon resonance (Biacore) analysis. The method involves capturing the antibodies on the sensor and flowing the IGF antigens over the captured antibodies, thus overcoming any avidity effect that could occur if the IGF antigens are coated onto the sensor and the antibodies added.

Mouse IGF-1 [2] = molecular target: T2, Mouse IGF-1 (Mus musculus, UniProt P05017); assay: as above; type: binding
T2 construct: Insulin-like growth factor-1 (IGF-1; a 70 amino-acid polypeptide); purchased R&D Systems 791-MG
T2 sequence (P05017 49-118 limits assumed): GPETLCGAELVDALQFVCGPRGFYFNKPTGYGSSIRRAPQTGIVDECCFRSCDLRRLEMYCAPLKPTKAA
Protocol: as §1, §2

Mouse IGF-2 = molecular target: T3, Mouse IGF-2 (Mus musculus, UniProt P09535); assay: as above; type: binding
T3 construct: insulin-like growth factor-2 (IGF-2; a 67 amino-acid polypeptide)
T3 sequence (P09535 25-91 limits assumed): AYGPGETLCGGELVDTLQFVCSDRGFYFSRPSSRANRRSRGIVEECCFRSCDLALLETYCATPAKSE
Protocol: as §1, §2

Rat IGF-1 = molecular target: T4, Rat IGF-1 (Rattus norvegicus, UniProt P08025); assay: as above; type: binding
T4 construct: Insulin-like growth factor-1 (IGF-1; a 70 amino-acid polypeptide)
T4 sequence (P08025 49-118 limits assumed): as the sequence (P05017 49-118 limits assumed) above, with A69S counted along it
Protocol: as §1, §2

Rat IGF-2 [3] = molecular target: T5, Rat IGF-2 (Rattus norvegicus, UniProt P01346); assay: as above; type: binding
T5 construct: insulin-like growth factor-2 (IGF-2; a 67 amino-acid polypeptide)
T5 sequence (P01346 25-91 limits assumed): as the sequence (P09535 25-91 limits assumed) above, with G3R, G5S counted along it
Protocol: as §1, §2

human IGF-1 = molecular target: T6, human IGF-1 (Homo sapiens, UniProt P05019); assay: as above; type: binding
T6 construct: Insulin-like growth factor-1 (IGF-1; a 70 amino-acid polypeptide)
T6 sequence (P05019 49-118): as the sequence (P05017 49-118 limits assumed) above, with P20D, I35S, T67A, A69S counted along it
Protocol: as §1, §2

Human IGF-2 [4] = molecular target: T1, Human IGF-2; assay: direct immunosorbent assay (ELISA) binding titration; settings: FIG. 1D
Protocol: (§3) Fully human IgG1 antibodies that bound with high affinity to IGF-1 are also tested for binding to human IGF-1 in direct immunosorbent assays (ELISA). Assays are performed by coating human IGF-1 (R&D Systems, No. 291-G1) to 96-well Maxisorb plates at a concentration of 0.5 μg/ml overnight at 4° C. (100 μl/well). Coating buffer alone is used as a control for unspecific binding. Wells are then washed once with washing buffer (1×TBS-T) and residual binding sites are blocked with 200 μl blocking buffer for 1 hour at room temperature on an orbital shaker followed by a further wash cycle. Serial three-fold dilutions of each test antibody in blocking buffer are prepared directly on the coated plates. Typical concentrations used are 50, 16.6, 5.6, 1.8, 0.6, 0.2, and 0.07 ng/ml. Blocking buffer alone is used as a positive control. The plates are then incubated for 2 hours at room temperature with agitation. After three wash cycles 100 μl/well of HRPO-conjugated anti-human IgG secondary reagent (Jackson ImmunoResearch Inc.) diluted in blocking buffer is added to all wells. After 2 hours incubation at room temperature with agitation the plates are washed three-times and 100 μl/well of TMB substrate solution (equal amounts of solution A and B) are pipetted into all wells. The plates are incubated for 10-20 min at RT with agitation and then the reaction is stopped by addition of 100 μl/well 1 M phosphoric acid. The absorbance is measured at a wavelength of 450 nm (reference 650 nm).
(§4) Binding of the fully human IGF-1 binding IgG1 antibodies to mouse IGF-1 (R&D Systems, No. 791-MG), rat IGF-1 (IBT, No. RU100), human IGF-2 (GroPep, No. FM001), mouse IGF-2 (R&D Systems, No. 792-MG), rat IGF-2 (IBT, No. AAU100), and human insulin (Roche) is also tested as described above for human IGF-1 (except that the concentration of human insulin used for coating is 3 μg/ml).

Mouse IGF-1 [5] = molecular target: T2, Mouse IGF-1; assay: as above; settings: FIG. 1B
Protocol: as §3, §4

Rat IGF-2 [6] = molecular target: T5, Rat IGF-2; assay: as above; settings: FIG. 1F
Protocol: as §3, §4

TC-71 cells = assay: Ewing's sarcoma-derived cell line growth assay; type: cell-based; settings: medium containing 10% FCS; relative to humanized IgG1 isotype control; FIG. 5
Protocol: The typical concentrations used are 30, 10, 3.3, 1.1, 0.37, and 0.12 μg/ml (or 100, 10, 1, 0.1, 0.01, 0.001 nM rapamycin and test antibody for combination studies) and each dilution is performed in triplicate wells. The cells plus antibody are then incubated for 120 hours after which time the relative cell number in each well is determined using the CellTiter-Glo luminescent cell viability assay (Promega). Luminescence (LU=Luminescence Units) is recorded using a XFluor GENios Pro 4 and for data analysis the mean value from triplicate wells is taken and fitted by iterative calculations using a sigmoidal curve analysis program (Graph Pad Prism) with variable Hill slope.

[7] = pharmacokinetic parameters in rats (plasma sandwich ELISA); type: in vivo, Wistar rats; settings: for AUC (0-72 h) / C(max) / CL / V(ss): first day of dosing; for t1/2φ: after last day of dosing with t(n) = 1008 hr
Protocol: Wistar rats are given five intravenous bolus administrations of 18, 52, and 248 mg/kg antibody every 72 hours. At various time points a blood sample is taken and the human antibody concentration in the plasma is determined by sandwich ELISA.

T1 sequence (P01344 25-91 limits assumed): as the sequence (P09535 25-91 limits assumed) above, with G3R, G5S, S22G, S32A, A35V, N36S counted along it

B1: 60833: fully human IgG1/Igλ anti-IGF antibody; heavy chain SEQ ID NO:39, light chain SEQ ID NO:40 (antibody, listed as Homo sapiens)
heavy: QVELVESGGGLVQPGGSLRLSCAASGFTFTSYWMSWVRQAPGKGLELVSSITSYGSFTYYADSVKGRFTISRDNSKNTLYLQMNSLRAEDTAVYYCARNMYTHFDSWGQGTLVTVSS[human IgG1 constant region left out here]
light: DIVLTQPPSVSGAPGQRVTISCSGSSSNIGSNSVSWYQQLPGTAPKLLIYDNSKRPSGVPDRFSGSKSGTSASLAITGLQSEDEADYYCQSRDTYGYYWVFGGGTKLTVLGQPKAAPSVTLFPPSSEELQANKATLVCLISDFYPGAVTVAWKGDSSPVKAGVETTTPSKQSNNKYAASSYLSLTPEQWKSHRSYSCQVTHEGSTVEKTVAPTECS
**Q.** With B1 as the molecule, how does the Kd (Human IGF-2 [1]) read?
**A.** The Kd was 0.9 nM.

**Q.** What about the Koff (Human IGF-2 [1]) of the same molecule?
**A.** The Koff was 0.00353 s⁻¹.

**Q.** And the Kon (Human IGF-2 [1])?
**A.** The Kon was 3.97e+06 M⁻¹ s⁻¹.

**Q.** What about the Koff (Mouse IGF-1 [2]) of the same molecule?
**A.** Its Koff is 0.000323 s⁻¹.

**Q.** What about the Kon (Mouse IGF-1 [2]) of the same molecule?
**A.** Its Kon is 1e+06 M⁻¹ s⁻¹.

**Q.** What about the Koff (Mouse IGF-2) of the same molecule?
**A.** Its Koff is 0.011 s⁻¹.

**Q.** What about the Kon (Mouse IGF-2) of the same molecule?
**A.** Its Kon is 868000 M⁻¹ s⁻¹.

**Q.** And the Koff (Rat IGF-1)?
**A.** Its Koff is 0.000253 s⁻¹.

**Q.** And the Kon (Rat IGF-1)?
**A.** The Kon was 3.81e+06 M⁻¹ s⁻¹.

**Q.** What about the Koff (Rat IGF-2 [3]) of the same molecule?
**A.** The Koff was 0.00613 s⁻¹.

**Q.** What about the Kon (Rat IGF-2 [3]) of the same molecule?
**A.** Its Kon is 2.56e+06 M⁻¹ s⁻¹.

**Q.** What about the Koff (human IGF-1) of the same molecule?
**A.** Its Koff is 0.000301 s⁻¹.

**Q.** What about the Kon (human IGF-1) of the same molecule?
**A.** The Kon was 4.74e+06 M⁻¹ s⁻¹.

**Q.** What about the ELISA binding (Human IGF-2 [4]) of the same molecule?
**A.** Its ELISA binding is “comparable cross-reactive binding”.

**Q.** And the ELISA binding (Mouse IGF-1 [5])?
**A.** The ELISA binding was “comparable cross-reactive binding”.

**Q.** What about the ELISA binding (Rat IGF-2 [6]) of the same molecule?
**A.** Its ELISA binding is “comparable cross-reactive binding”.

**Q.** What about the “effect on TC-71 cell proliferation” value (TC-71 cells) of the same molecule?
**A.** Its value is “dose-dependent inhibition”.

**Q.** What about the “AUC (0-72 h)” value ([7]; 18 mg/kg i.v. bolus) of the same molecule?
**A.** The value was 15500 µg·h/mL.

**Q.** What about the “C(max)” value ([7]; 18 mg/kg i.v. bolus) of the same molecule?
**A.** The value was 531 µg/mL.

**Q.** And the CL ([7]; 18 mg/kg i.v. bolus)?
**A.** Its CL is 22.9 (mL/day)/kg.

**Q.** And the “V(ss)” value ([7]; 18 mg/kg i.v. bolus)?
**A.** The value was 0.0681 L/kg.

**Q.** What about the t1/2φ ([7]; 18 mg/kg) of the same molecule?
**A.** Its t1/2φ is 210 h.

**Q.** And the “AUC (0-72 h)” value ([7]; 52 mg/kg i.v. bolus)?
**A.** Its value is 40200 µg·h/mL.

**Q.** And the “C(max)” value ([7]; 52 mg/kg i.v. bolus)?
**A.** The value was 1700 µg/mL.

**Q.** And the CL ([7]; 52 mg/kg i.v. bolus)?
**A.** The CL was 28.7 (mL/day)/kg.

**Q.** What about the “V(ss)” value ([7]; 52 mg/kg i.v. bolus) of the same molecule?
**A.** Its value is 0.0763 L/kg.

**Q.** What about the t1/2φ ([7]; 52 mg/kg) of the same molecule?
**A.** Its t1/2φ is 197 h.

**Q.** What about the “AUC (0-72 h)” value ([7]; 248 mg/kg i.v. bolus) of the same molecule?
**A.** The value was 120000 µg·h/mL.

**Q.** What about the “C(max)” value ([7]; 248 mg/kg i.v. bolus) of the same molecule?
**A.** Its value is 5560 µg/mL.

**Q.** And the CL ([7]; 248 mg/kg i.v. bolus)?
**A.** Its CL is 37.3 (mL/day)/kg.

**Q.** What about the “V(ss)” value ([7]; 248 mg/kg i.v. bolus) of the same molecule?
**A.** The value was 0.0654 L/kg.

**Q.** What about the t1/2φ ([7]; 248 mg/kg) of the same molecule?
**A.** Its t1/2φ is 255 h.
